Results on 113 compounds are retold here after PubChem BioAssay AID488969 (Vanderbilt High Throughput Screening Facility, 2010).

The full ranking holds about 110,000 compounds; the median of “z-score” is about -0.1, and the highest 2% start at about 2. This is one part of the list.

For this assay, the target named is Metabotropic glutamate receptor 8 (Rattus norvegicus) (UniProt P70579). In words: rat mGluR8 modulators via GIRK flux, primary screen, cell-based, thallium flux, HTS (AID 488969). Particulars: HEK293 rat mGluR8, GIRK (G protein-gated inwardly rectifying potassium channel) thallium flux, FluoZin2; at 10 µM; stronger effect = higher value; submaximal glutamate (EC20) added with thallium.
Chain of UniProt P70579 (P70579 whole entry, looked up): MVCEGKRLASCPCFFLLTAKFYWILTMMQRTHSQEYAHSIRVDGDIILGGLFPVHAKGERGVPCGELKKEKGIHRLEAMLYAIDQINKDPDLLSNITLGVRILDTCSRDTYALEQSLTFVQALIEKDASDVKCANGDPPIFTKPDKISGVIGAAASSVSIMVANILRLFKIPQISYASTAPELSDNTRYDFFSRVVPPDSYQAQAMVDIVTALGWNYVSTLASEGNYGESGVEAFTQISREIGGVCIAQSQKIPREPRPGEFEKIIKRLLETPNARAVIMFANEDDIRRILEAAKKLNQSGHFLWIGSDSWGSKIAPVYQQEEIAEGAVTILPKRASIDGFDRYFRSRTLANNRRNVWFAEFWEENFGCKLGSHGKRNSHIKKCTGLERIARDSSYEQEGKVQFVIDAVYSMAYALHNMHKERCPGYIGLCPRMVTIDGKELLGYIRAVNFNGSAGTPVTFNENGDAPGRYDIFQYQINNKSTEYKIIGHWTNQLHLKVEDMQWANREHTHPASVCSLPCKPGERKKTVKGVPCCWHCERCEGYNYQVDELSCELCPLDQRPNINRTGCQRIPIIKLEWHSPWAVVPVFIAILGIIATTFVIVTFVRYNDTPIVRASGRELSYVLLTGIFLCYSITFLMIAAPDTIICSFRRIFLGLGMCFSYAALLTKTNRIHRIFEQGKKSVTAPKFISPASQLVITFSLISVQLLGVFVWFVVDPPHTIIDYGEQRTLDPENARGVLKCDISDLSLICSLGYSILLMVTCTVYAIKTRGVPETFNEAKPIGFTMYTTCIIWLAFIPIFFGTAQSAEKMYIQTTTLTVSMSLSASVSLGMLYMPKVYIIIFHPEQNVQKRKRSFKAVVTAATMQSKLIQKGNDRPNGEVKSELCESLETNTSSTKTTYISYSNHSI
In turn, `CCOC(=O)N1CCN(C(=O)CCn2c(=S)[nH]c3cc(OCC)c(OCC)cc3c2=O)CC1` gave a z-score of -0.56. The compound `Cc1ccc(S(=O)(=O)CCC(=O)NCc2ccc(Cl)cc2)cc1` had a z-score of -0.273. In the case of `CN(c1nc2c(c(=O)n(C)c(=O)n2C)n1CC(=O)c1ccccc1)C1CCCCC1` it was -1.59; in that of `Cn1c(CNS(=O)(=O)c2ccc(F)cc2)n[nH]c1=S`, -0.234. For `Cc1[nH]c2ccccc2c1C(=O)Cn1c(=O)oc2ccccc21` the value was 0.0211. In the case of `Cc1csc(SCc2ccc(C(=O)O)cc2)n1` it was -0.165. For `S=C(NCCC(c1ccccc1)c1ccccc1)Nc1ccccc1Cl`, the z-score came out at 0.298.

In turn, `O=C(Nc1cnc2sccn2c1=O)c1ccccc1Cl` had a z-score of -0.151. For `Cc1cc(C)[n+](-c2ccc(F)cc2)c2[nH]c(=O)[nH]c(=O)c12` the value was 0.407; for `COc1ccc(C2NC(=O)c3ccccc3O2)cc1OC` (stereo not drawn), -0.511. `Cc1nc2ccccc2c2c1C(=O)N(C(C)C)C2=O` had a z-score of -0.214. For `CS(=O)(=O)N(CC(=O)Nc1ccccc1C(=O)NCc1ccco1)c1ccc2c(c1)OCCO2` the value was -0.0509; for `Cc1cc(C)c2c(=O)[nH]c(SCC(=O)NCCc3ccccc3)nc2n1`, -0.199; for `CN(c1ccc(C(=O)Nc2ccccc2C(F)(F)F)cc1)S(C)(=O)=O`, 0.514. Compound `Cc1cccc(NC(=O)c2ccc(C3SCC(=O)N3CCc3ccccc3)cc2)c1C` (stereo not drawn) returned a z-score of 0.401. The compound `Cc1noc(C)c1S(=O)(=O)N1CCCC(C(=O)Nc2ccc(Cl)cn2)C1` (stereo not drawn) showed a z-score of 0.645. For `O=C(O)C1C2CCC(C2)C1C(=O)Nc1cc(F)ccc1F` (stereo not drawn) the value was -0.346. For `COc1cc(C(Nc2ccccn2)c2ccc3ccc(C)nc3c2O)cc(OC)c1O` (stereo not drawn) the value was -0.746; for `S=c1nn[nH]n1C12CC3CC(CC(C3)C1)C2`, 2.46; for `COc1cccc(/C=N/n2cnc3ccccc32)c1OC`, -0.147. Turning to `CCOc1ccc(Cc2nnc(N)s2)cc1OCC`, the z-score stood at 0.068. In the case of `O=C(CC1Nc2cccc3cccc(c23)NC1=O)Nc1ccccc1` (stereo not drawn) it was -0.474; in that of `Cc1ccc(C(=O)c2cn[nH]c2-c2cc(Cl)ccc2O)cc1`, -0.48; in that of `CCOC(=O)C1CCN(C(=O)CN(Cc2ccccc2)S(C)(=O)=O)CC1`, 0.143. In the case of `COc1cccc(C(=O)N2CCN(C(=O)c3cccc4ccccc34)CC2)c1OC` it was 0.246; in that of `COC(=O)C(CCSC)NC(=O)C12CC3CC(CC(C3)C1)C2` (stereo not drawn), -0.128. Consider `CC(C)(C)c1csc(NC(=O)Cn2c(=O)oc3ccccc32)n1`, for which the z-score is -0.25. Compound `CCc1ccc(OCC(=O)NNC(=O)CSc2nnc(-c3ccc(C)cc3)n2C)cc1` had a z-score of -0.485.

`Cc1cc(NC(=O)CSc2nc(-c3cccnc3)ccc2C#N)no1` registered a z-score of 0.399. `Cc1cc(C)n(C2CC(=O)N(c3ccccc3)C2=O)n1` (stereo not drawn): the z-score turned out to be 0.0838. Turning to `O=c1sc2ccccc2n1COc1ccccc1`, the z-score is -1.03.

`COC(=O)C1CCN(C(=O)C2CCCCC2)CC1` showed a z-score of -0.248. Compound `CC(C)(C)NC(=O)CCN1CCOCC1` came in with a z-score of -0.348.

With `COc1ccc(N(CC(=O)NCC2CCCO2)S(=O)(=O)c2ccc(C)cc2)cc1OC` (stereo not drawn), the z-score was determined as 0.0521.

Turning to `Cc1sc2nc(CSc3ccccc3)nc(N3CCN(C)CC3)c2c1C`, the z-score is -0.155. For `Clc1ccc(Oc2nc(Oc3ccc(Cl)cc3)nc(N3CCOCC3)n2)cc1` the value was -0.0696; for `NC(=O)C1CCN(C(=O)c2cc3ccccn3n2)CC1`, 0.194. In the case of `CC(NC(=O)c1ccc(Br)cc1)c1ccc2c(c1)CCCC2` (stereo not drawn) it was 1.4. With `Cc1cc(C)c(C#N)c(SCC(=O)NN2CC(=O)N(c3ccccc3F)CC2=O)n1`, the z-score was -0.089.

In turn, `CCOc1ccc(C(=O)OCC(=O)NCc2ccco2)cc1OCC` gave a z-score of -0.0124.

Consider `COc1ccc(NC(=O)COC(=O)[C@@H]2CCCN2C(=O)c2cccs2)cc1`, for which the z-score is -0.22.

`CC1Cc2ccccc2N1CC(=O)Nc1ccc2c(c1)OCO2` (stereo not drawn) returned a z-score of -0.661.

`Cc1ccc(-n2nc(C)c3c2OC(N)=C(C#N)C3c2ccoc2)cc1` (stereo not drawn) gave a z-score of 0.469. Consider `CC(C)C(c1nnnn1C1CCCC1)N1CCCCC1` (stereo not drawn), for which the z-score was found to be 0.273. For `CCOC(=O)C1C(=O)CC(C)(O)C(C(=O)OCC)C1c1ccc2c(c1)OCO2` (stereo not drawn) the value was 0.354. Regarding `Cc1ccc(C(=O)NCC(=O)OCC(=O)Nc2cc(C)c(C)cc2[N+](=O)[O-])cc1`, the z-score was -0.241.

In turn, `O=C(Nc1cccc(S(=O)(=O)N2CCOCC2)c1)c1ccc(N2CCOCC2)c([N+](=O)[O-])c1` returned a z-score of -0.181. For `CC(=O)NS(=O)(=O)c1ccc(NC(=O)CN2C(=O)C3C4C=CC(C4)C3C2=O)cc1` (stereo not drawn) the value was -1.16; for `CC(C)C[C@H](NC(=O)OC(C)(C)C)c1nnc(SCc2cccc(F)c2)o1`, -0.53; for `Cc1coc2c(C)c3oc(=O)cc(-c4ccccc4)c3cc12`, -0.31. `Cc1cccc(NC(=O)COc2ccccc2C)n1` came in with a z-score of 0.0201.

`O=C(Cc1ccccc1)N1CCC(c2nc3ccccc3[nH]2)CC1`: the z-score was -0.282.

The compound `Cc1ccc(NC(=O)CSc2nnc(NC(=O)c3ccc(S(=O)(=O)N4CCOCC4)cc3)s2)cc1` showed a z-score of -0.354. In turn, `COC(=O)C1=C(NC(=O)c2cccc(OC)c2)CCS1` registered a z-score of -0.151. For `Cc1cc(C)c(NC(=O)CN2C(=O)NC3(CCOc4ccccc43)C2=O)c(C)c1` (stereo not drawn) the value was 0.138; for `O=C(O)Cc1ccc(NC(=O)c2cccs2)cc1`, -0.122. The compound `CC(NC(=O)COC(=O)/C=C/c1cccc(C(F)(F)F)c1)c1ccccc1` (stereo not drawn) had a z-score of -0.0485. In the case of `COc1ccc(/C=C(\NC(=O)c2ccc(OCC(C)C)cc2)C(=O)OCc2ccco2)cc1` it was -0.0216; in that of `COc1ccc2[nH]c(=O)c(CN(CCc3cccc(C)c3)C(C)=O)cc2c1`, -0.529; in that of `Cc1cc2c(cc1C)CSC(c1ccccc1OC(=O)C(C)C)SC2`, -0.312. In the case of `CC1CN(S(=O)(=O)c2ccccc2)CC(C)O1` (stereo not drawn) it was 0.256; in that of `O=C(O)CCCn1nc(C(F)(F)F)c2c1CCCCC2`, -0.241; in that of `CCCCC(=O)Nc1ncc(Br)s1`, -0.0496.

`CCCCC(C(=O)NC(C)(C)C)N(Cc1ccco1)C(=O)c1snc(C(N)=O)c1N` (stereo not drawn) came in with a z-score of -0.117. In the case of `COc1ccccc1NS(=O)(=O)c1ccc(Cl)c(NC(=O)C(C)N2C(=O)c3ccccc3C2=O)c1` (stereo not drawn), the z-score was -0.268. As to `O=C(NC(=S)Nc1cccc(NC(=O)c2ccc(Cl)cc2Cl)c1)c1cccs1`, the z-score was -0.0725. For `Cc1ccc(C(=O)N2CCN(c3ncccn3)CC2)cc1S(=O)(=O)N1CCCCC1` the value was 0.0638. For the compound `Cc1ccc(C)c(OCC(=O)Nc2ccc(S(=O)(=O)Nc3ccccn3)cc2)c1C`, the z-score was -2.3.

As for `NNC(=O)C1CC1c1ccccc1` (stereo not drawn), the z-score was -0.129. `COc1ccc(NC(=O)Cn2c(=O)n(-c3ccc(OC)cc3OC)c(=O)c3c(C)c(C)sc32)cc1`: the z-score was -0.469. `O=[N+]([O-])c1ccc2c(c1)ncn2-c1ccccc1`: the z-score was found to be 0.0313.

`COc1ccc(CCNS(=O)(=O)c2cn(C)c(=O)n(C)c2=O)cc1OC`: the z-score was -0.0888. In the case of `Cc1ccc(/C=C2\SC(N3CCN(C(c4ccccc4)c4ccccc4)CC3)=NC2=O)o1` it was 0.00418. In the case of `COc1ccc2nc(COC(=O)c3ccco3)c(C(C)=O)[n+]([O-])c2c1` it was 0.0313; in that of `CCN1CCN(c2ccc(NC(=O)c3ccc4c(c3)OCO4)cc2)CC1`, -0.0909; in that of `CCN1CCc2nc(NC(=O)c3ccccc3)sc2C1`, 0.0235. In the case of `CC(C)C(=O)Nc1ccc(C(=O)NNC(=O)c2cccs2)cc1`, the z-score worked out at 0.224. For `O=C(Oc1ccccc1N1C(=O)CCC1=O)c1ccco1` the value was 0.258; for `CCN(CC)C(=O)COc1ccc(S(=O)(=O)N2CCOCC2)cc1`, -0.144; for `COc1ccc2nc(NCCCO)[nH]c2c1`, 0.653. In the case of `CC(C)(C)NC(=O)C1CCC(C)(C(=O)O)C1(C)C` (stereo not drawn) it was 1.19; in that of `CCNC(=S)NS(=O)(=O)c1ccc(Cl)cc1`, -0.126.

In turn, `Cc1oc(-c2ccccc2)nc1CC(=O)O` had a z-score of -0.979. As for `COC(=O)c1ccccc1NC(=S)NC(=O)c1ccc(C)cc1`, the z-score was found to be 2.94. `COc1ccc(NC(=O)NC2CCN(C(C)C)CC2)c(OC)c1` registered a z-score of -0.212. For the compound `O=C(CN1CCCCC1)N1CCCc2c1c(=O)oc1ccc(OCc3ccccc3)cc21`, the z-score is 0.154. For the compound `COC(=O)CCc1c(C)[nH]c(=S)[nH]c1=O`, the z-score stood at 0.108. In the case of `COc1ccc(CNc2ccc(-c3ccccc3OC)nn2)cc1` it was -0.17; in that of `CCC(=O)NCC(=O)OCC(=O)c1ccccc1`, -0.0257. For the compound `COc1cc(/C=N\Nc2ccc([N+](=O)[O-])cc2)ccc1OCC(=O)Nc1ccc(C)c(C)c1`, the z-score is -0.212. With `Cc1cc(/C=N/n2cnnc2)c(C)n1-c1ccc(Cl)cc1`, the z-score is -0.0755.

Turning to `CC1CCN(C(=O)CN(C2CCCCC2)S(C)(=O)=O)CC1`, the z-score amounted to 0.23. For `Cc1ccccc1N=C1NC(=O)CS1` the value was 0.516. As to `Cc1ccc2nc(CSc3nc(C)cc(C)c3C#N)[nH]c2c1`, the z-score is -0.649. In the case of `O=c1c2ccccc2nc(SCc2cccc(F)c2)n1Cc1ccco1` it was -0.373. The compound `COc1ccc(-c2noc(CCCC(=O)Nc3ccc(C(N)=O)cc3)n2)cc1` had a z-score of 0.0356. In the case of `O=c1[nH]c2ccccc2n1Cc1ccc(Cl)cc1` it was 0.174. In the case of `C1=CN2CCC1C(c1ccccc1)C2` (stereo not drawn) it was 2.05; in that of `c1ccc(N(c2ccccc2)c2nc(-n3ccnc3)nc(-n3ccnc3)n2)cc1`, -0.953. For `CCOC(=O)c1ccc(NC(=O)CN2C(=O)C3C4C=CC(C4)C3C2=O)cc1` (stereo not drawn) the value was 0.107. `O=C(Nc1cccc2ncccc12)c1ccc2c(c1)OCCO2` showed a z-score of 1.16. Consider `COc1ccc(Nc2nc(N)nc(CN(C)C3CCCCC3)n2)cc1`, for which the z-score was -0.422. For `CN1C(=S)SC(C)(C)C1/[N+]([O-])=C/c1cccnc1` (stereo not drawn) the value was 0.179. For `COc1ccccc1-n1c(SCC(=O)Nc2ccc3c(c2)OCO3)nc2c(c1=O)SCC2` the value was -0.513; for `CCn1c2c(c3cc(OCC(C)C)ccc31)CCCC2=O`, 0.201. In the case of `CC(=O)n1nc(-c2ccco2)nc1SCc1ccccc1`, the z-score amounted to 0.38.

Regarding `CC(=O)Nc1nnc(-c2ccc(Cl)s2)o1`, the z-score is -0.0573. In the case of `Cc1ccsc1/C=N\NC(=O)Cn1nnc2ccccc21` it was -0.0229; in that of `Cc1ccc(SC(=O)COc2ccccc2C)cc1`, -0.399; in that of `O=C(NCCCN1CCOCC1)c1ccc(CS(=O)(=O)Cc2ccccc2Cl)o1`, 0.265. For the compound `Cc1cc(C)n2nc(SCc3cc(=O)oc4cc(C)c(C)cc34)nc2n1`, the z-score stood at 0.128. In the case of `CCn1nc(C)c(/C=N/NC(=O)Cn2nccc2C)c1C` it was 0.126; in that of `O=C(Cn1ncc2c3ccccc3n(Cc3ccc(F)cc3)c2c1=O)N1CCN(c2ncccn2)CC1`, -0.688.
